# ± gives the standard deviation of the averaged measurements. Whole data set: some 33,000 sequences, median “E-score (dimensionless, -0.5 to 0.5)” near -0.046, cut for the highest 2% near 0.36. The list shows a part of the results.
# Test system: T1, SpTbr T-box DNA-binding domain (GST fusion)
# T1 sequence: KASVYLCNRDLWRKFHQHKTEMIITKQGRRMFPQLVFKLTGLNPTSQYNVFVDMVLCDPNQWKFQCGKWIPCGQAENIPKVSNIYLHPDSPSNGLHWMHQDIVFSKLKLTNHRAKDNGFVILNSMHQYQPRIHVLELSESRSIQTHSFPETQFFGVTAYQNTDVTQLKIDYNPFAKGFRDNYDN
# Experiment: PBM E-score of 8-mer (E-score (dimensionless, -0.5 to 0.5)); Tbr is Tbrain of the sea star Patiria miniata (Pm) or the sea urchin Strongylocentrotus purpuratus (Sp); higher = stronger binding preference; most listed sequences are background and not binding sites
# Conditions: the construct has about 5 more residues each side
# Method: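 Universal protein-binding microarray (Agilent AMADID 016060, 60-bp probes with a 35-bp variable region) incubated with 200 nM GST-fused Strongylocentrotus purpuratus Tbr T-box DNA-binding domain (residues 362-554) in PBS pH 7.5. Scored for every ungapped 8-mer (given with its reverse complement) as E-score (range -0.5 to 0.5; >0.45 counts as bound) and Z-score of median probe intensity. Two replicate arrays (datasets 1 and 2).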
# 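Note: protein at 200 nM in PBS on universal double-stranded arrays.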
row,Sequence,PBM E-score of 8-mer
1,GCGATGGA,0.0533 ± 0.048
2,AGTATATA,-0.136 ± 0.042
3,CGCCCCAC,0.00751 ± 0.0027
4,AGGACTCC,-0.29 ± 0.025
5,AGCTTGCC,0.00656 ± 0.071
6,AACGAGCC,-0.277 ± 0.035
7,CCACTAGA,-0.201 ± 0.048
8,CCCACGAG,0.0819 ± 0.033
9,ACGTGGAG,-0.121 ± 0.018
10,AGACTGTC,-0.0979 ± 0.023
11,CCGGCTAC,-0.103 ± 0.0069
12,ATGCCCTA,-0.2895 ± 0.00057
13,CCTCTTCG,0.199 ± 0.035
14,CTTGCCTC,-0.128 ± 0.041
15,CCAAATAG,-0.1389 ± 0.00028
16,CATAAATA,-0.141 ± 0.046
17,CGGTGTAC,-0.0701 ± 0.034
18,CTGAAAAC,-0.0582 ± 0.057
19,ATACTGAC,-0.142 ± 0.033
20,TCGAACGA,-0.00886 ± 0.02
21,GAGGTATC,-0.125 ± 0.023
22,ACCCATCC,-0.232 ± 0.027
23,GAGCAATA,-0.201 ± 0.072
24,AGCACTTC,0.3006 ± 0.0019
25,AAGTGGGG,0.177 ± 0.0055

row,Sequence,PBM E-score of 8-mer
1,CATTAGTA,-0.258 ± 0.017
2,TCGATAGA,-0.00357 ± 0.049
3,TCGTTAAA,-0.0516 ± 0.063
4,CACATCTC,0.149 ± 0.055
5,TCATCAAA,-0.0744 ± 0.057
6,CCTCCAAG,-0.00379 ± 0.04
7,ACCGTTAT,0.118 ± 0.081
8,ACTCATCA,-0.00884 ± 0.065
9,AGGCACCA,-0.15 ± 0.085
10,AATCGATA,0.125 ± 0.0065
11,AGAGCCCG,-0.173 ± 0.016
12,ATTAACAA,0.14 ± 0.023
13,GAACACCA,0.104 ± 0.014
14,GAATGACC,-0.0328 ± 0.00067
15,ACGCCTAC,0.28 ± 0.014
16,AATAGTTA,-0.0269 ± 0.049
17,CCTTCCGC,0.168 ± 0.062
18,GAGGATCC,-0.059 ± 0.051
19,GTCTCGTA,-0.27 ± 0.0013
20,ACACATGC,0.289 ± 0.0014
21,ATCACCTA,0.321 ± 0.065
22,TAAACAGA,0.107 ± 0.026
23,CTCAAGCA,-0.201 ± 0.0083
24,AATCATGC,-0.113 ± 0.018
25,CATTCTGC,0.0731 ± 0.02

row,Sequence,PBM E-score of 8-mer
1,AAGTGGAG,-0.0833 ± 0.13
2,CACGACGA,-0.048 ± 0.056
3,ATCCGTTC,-0.14 ± 0.0066
4,AATACAAT,-0.264 ± 0.023
5,AACGGTGA,0.152 ± 0.039
6,CAAAACGA,-0.00577 ± 0.0098
7,ATGAGATC,-0.236 ± 0.014
8,CAAATTAA,-0.0282 ± 0.037
9,AACCAATG,-0.227 ± 0.088
10,AATTATAG,-0.249 ± 0.051
11,GCGTATGA,0.0523 ± 0.011
12,AAGCCAAC,-0.219 ± 0.026
13,AGGTAAGA,-0.219 ± 0.079
14,CTAGCGAG,0.129 ± 0.041
15,ATCAACAT,-0.111 ± 0.028
16,CCAGTCCC,-0.112 ± 0.028
17,TGCCTCCA,-0.261 ± 0.043
18,CAGCGTGC,-0.0832 ± 0.038
19,ATTTTCAC,0.202 ± 0.079
20,TTCGTCAA,0.143 ± 0.062
21,AAGAACGT,0.0235 ± 0.03
22,CCCCATGC,-0.159 ± 0.13
23,ATCAGTAC,-0.114 ± 0.0072
24,ACGGGCAA,-0.18 ± 0.079
25,CAGACCCG,0.142 ± 0.051

row,Sequence,PBM E-score of 8-mer
1,CTACTATC,-0.0381 ± 0.058
2,CAATTCAG,-0.0756 ± 0.052
3,GTCTAAAC,-0.127 ± 0.099
4,CGATCGAC,0.246 ± 0.012
5,ATTCAATA,-0.18 ± 0.016
6,TTCATCAA,-0.146 ± 0.015
7,TATTCTAA,-0.215 ± 0.022
8,TAGCATGA,-0.265 ± 0.0047
9,CACCTGAG,0.3492 ± 0.00078
10,CGAATATC,-0.0861 ± 0.035
11,AGGATAAG,-0.163 ± 0.0048
12,ACAGGAAT,0.0131 ± 0.032
13,GCGGCTAA,0.15 ± 0.0054
14,GACCAGGA,-0.124 ± 0.049
15,TGGGTGAA,-0.137 ± 0.0066
16,CCTCAACA,-0.0119 ± 0.047
17,CGCTCAAG,-0.0431 ± 0.0039
18,TCCCAACA,0.202 ± 0.003
19,CGAAGCAA,0.0425 ± 0.013
20,ACCCAGTC,-0.24 ± 0.0062
21,CACACTGC,0.175 ± 0.0027
22,CAGTTCCA,-0.09108 ± 0.00077
23,AGTCCTAT,-0.318 ± 0.11
24,CGAACCAA,0.0451 ± 0.0078
25,AAAGTTCG,0.0442 ± 0.025

row,Sequence,PBM E-score of 8-mer
1,GGACTTAA,-0.307 ± 0.01
2,AAAATCAC,0.209 ± 0.022
3,CCCGCGAG,0.254 ± 0.0046
4,AAGGTGAA,0.187 ± 0.0077
5,AGTCAAGA,-0.156 ± 0.061
6,ATTTGCTA,0.133 ± 0.0068
7,AAAATTTT,-0.141 ± 0.15
8,AACCGTAG,-0.0901 ± 0.015
9,GTAGAAAC,-0.21 ± 0.0056
10,CGAAAAAA,-0.13 ± 0.14
11,ATCCCAGC,-0.171 ± 0.041
12,CTTACCTC,-0.0201 ± 0.025
13,ACGCTGCG,0.0912 ± 0.061
14,AAGTAGTC,-0.153 ± 0.0063
15,CAAGGCCG,-0.0893 ± 0.0095
16,TCAGAGGA,0.0964 ± 0.045
17,CGCTGCAG,-0.0743 ± 0.11
18,AGCCACTC,-0.1427 ± 0.0014
19,GGCATAGA,-0.287 ± 0.012
20,GATGTTAC,0.068 ± 0.00029
21,CGTCCCTC,-0.185 ± 0.077
22,CCGTTTCC,-0.0143 ± 0.09
23,AAGTGGCT,0.0589 ± 0.047
24,GCAGACTA,-0.148 ± 0.0038
25,CATGTTCG,-0.0105 ± 0.069

row,Sequence,PBM E-score of 8-mer
1,GGGATGGA,-0.198 ± 0.03
2,TAACGTGA,0.133 ± 0.037
3,CCGAAAGC,-0.0294 ± 0.049
4,GCCTTTCC,-0.0333 ± 0.013
5,GCATATCA,-0.0952 ± 0.062
6,GCGTTAAA,0.317 ± 0.04
7,AAACCAAT,-0.235 ± 0.039
8,GGAAACCC,-0.0429 ± 0.0096
9,AGCAGTAT,-0.137 ± 0.08
10,GGGGAGAC,-0.0202 ± 0.082
11,AACGTATT,0.0419 ± 0.033
12,CAGCTAAA,-0.13 ± 0.029
13,CAACATGA,0.00917 ± 0.017
14,CTTCACGC,0.409 ± 0.01
15,CACAGTGC,0.166 ± 0.038
16,CTCCCGAA,-0.226 ± 0.04
17,ATCCACTA,-0.217 ± 0.065
18,AACTCAGA,-0.0806 ± 0.0027
19,AAAATGCA,-0.0594 ± 0.089
20,CCTTTCCG,-0.104 ± 0.011
21,AACGTGAT,0.0397 ± 0.054
22,CCGATTGA,-0.154 ± 0.057
23,CCATGGCG,-0.204 ± 0.015
24,AAATTTTA,-0.00539 ± 0.17
25,GCGCCACA,0.223 ± 0.014

row,Sequence,PBM E-score of 8-mer
1,AGACGCCC,-0.148 ± 0.025
2,CCAAAATC,-0.138 ± 0.03
3,ATGTGCCA,0.374 ± 0.01
4,CCTATCCC,-0.00292 ± 0.082
5,AATTACAG,-0.124 ± 0.024
6,CTTAAAGC,-0.259 ± 0.041
7,CCACTGGA,-0.234 ± 0.0092
8,ATCCTGAG,-0.171 ± 0.027
9,AGATACGG,-0.0426 ± 0.015
10,TAAAGGGA,-0.0975 ± 0.056
11,AAGTCCGA,-0.125 ± 0.033
12,GATATAGC,0.118 ± 0.023
13,CAATCGAA,-0.266 ± 0.099
14,CAAGCCCA,-0.181 ± 0.039
15,GTTTCTCA,0.186 ± 0.039
16,TAGAGGCA,-0.173 ± 0.011
17,CACCATCA,0.246 ± 0.0075
18,AAGCTGGA,-0.0414 ± 0.026
19,AACTGGTG,0.188 ± 0.02
20,ATCCAATG,-0.108 ± 0.019
21,CTCATGGA,-0.162 ± 0.0046
22,GGGATGTA,-0.0945 ± 0.017

# Reference: the supplement of paper PMC4166925
